# Reference: the supplement of paper PMC11417369
# ± gives the standard deviation of the averaged measurements. This is one part of the list.
# Tested on: PfAP2-G AP2 domain (GST-tagged)
# Experiment: gcPBM binding intensity (ln(normalized median fluorescence intensity)); higher = stronger DNA binding
# Method in brief: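 Probes on an Agilent 4 × 180k array were primer-extended, double-stranded and 36 bp long, taken from intergenic genomic regions, with negative controls added. GST-tagged P. falciparum DNA-binding domains from E. coli, about 25 μg on average, were applied to the array for 1 h in 1× PBS containing 1% milk, 0.2 mg/ml BSA, 0.5% salmon testes DNA and 0.03% Triton X-100. Binding intensity, obtained after Alexa488 anti-GST antibody detection and a 488 nm scan, is the highest Masliner-normalised natural-log median intensity across replicate spots of either probe orientation.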
row,Sequence,gcPBM binding intensity (ln)
1,TTTCGTAAACTTTATGCACACACATATACATATTTC [CACACA_site8146],10.2 ± 0.16
2,ATTTGTATATACATATGTACACATGTAGGCTCATAA [XGTACX_site1709],11.4 ± 0.84
3,TATAATAATATTTACACACGCATATGTTATATATAT [CACACA_site1477],9.93 ± 0.071
4,TACAAATGCGTATGTCAATATATGGAGAAATAAATA [TGCATGCA_negctrl_site290],10.1 ± 0.16
5,TGTATATGGTTTGTGCAAAAATTTATTAATGTGTAA [TGCATGCA_negctrl_site374],10.07 ± 0.028
6,TTTGAATACTGAATGGTGCAAATTGTTCTCCCCATG,10.3 ± 0.23
7,AGTATAACTTTTGCGCGTACACACATTTATCCTCTT [XGTACX_site429],11.6 ± 0.72
8,TATATTAAAATAATCACACACATCAATTAATGGTAA [CACACA_site1234],9.81 ± 0.014
9,TAAATAAAAGATACGAGTACGTATGATGTTAACCTC [XGTACX_site8840],11.2 ± 0.8
10,GAACGAAATAAGTGTGTGCACATGTAACCACAAATC [GTGCAC_site9829],10.9 ± 0.34
11,CAATATTTTCATAGATGTACTTTGGACTTATTATAT [XGTACX_site4849],11.3 ± 0.84
12,GTATATAGTATGTAGAGTACTAATTTCCATATGTTC [XGTACX_site7816],10.9 ± 0.41
13,ATTTATATATAGGTGTGTCCACAAATAGTATGTAAA [XGTACX_site2916],11.5 ± 0.88
14,GATCAAATAGAAAATACATGCAATGTGTGAAATAAC [TGCATGCA_site835],10.015 ± 0.007
15,TTTCAAATGGAATGTGTGCACATAAATGTAAATAAA,10.5 ± 0.25
16,AAAAAAAAAATTTACTGTACACATTTGGGATACTCA [XGTACX_site5191],11.7 ± 0.76
17,TTTAAAATAACCAAAAACAAAAAGAAACACAAATGT [GTGCAC_negctrl_site705],10.28 ± 0.092
18,ATGGTTTTCAGAAAAACATGCATACAATAATAAAAA [TGCATGCA_site815],10.1 ± 0.085
19,CTTATTTAATGTATCACACACGAGAATAAAAAATAA [CACACA_site3020],10.2 ± 0.21
20,TATAAGTTGATATATACACACATATATAAATATGTA [CACACA_site7526],9.89 ± 0.11
21,TATTTATAAAAATATACACACATACAAATATGCATA [CACACA_site4555],9.815 ± 0.007
22,GAAATTAAAAAATTTATGCACACTTTAAAAAAAAAA [CACACA_site3769],10.1 ± 0.2
23,ATATATATATATAATTGTACATTTTTATGTTTTATA [XGTACX_site4560],10.8 ± 0.62

row,Sequence,gcPBM binding intensity (ln)
1,AAACTTTTTTTAAAAACACACATATAGATTTATATA [CACACA_site7842],9.88 ± 0.014
2,TATTTTTAAACAAAACTGTATTTATTTTTTAAAATT [CACACA_negctrl_site1449],9.725 ± 0.049
3,TTTTGTTATTTTTGTATGCACTACATATTATTATAT,10.4 ± 0.18
4,TAGTTTTTTATATATTGTACAAATGATATATTATAT [XGTACX_site1002],10.9 ± 0.57
5,AATGATTTTCAATCGAAATGAAACTTAGAAGATATA [CACACA_negctrl_site1475],9.755 ± 0.021
6,TTTTAAACAGGACACACACACATATAGATTTATATA [CACACA_site6560],10.4 ± 0.34
7,ATATGTAGTTTTTATTGTACGTGTAGAAGAAATAAT [XGTACX_site6608],11.5 ± 1.2
8,TTCATTAAAATTATTACACACAGTTCTTCAACCAAA [CACACA_site3504],10 ± 0.14
9,AAGGTGGAAACAATTACACACACACTAAAAAAAAAA [CACACA_site7493],10.3 ± 0.29
10,ATATATATATATTTCGTGCACTGATAATATTATTTT,10.3 ± 0.49
11,TATATTTTAATTTGAAGTACTAATATTTATTTATAT [XGTACX_site7458],11.1 ± 0.74
12,TATAACCATATATACACACACATATAAATATAAATA [CACACA_site7089],9.91
13,ATGAAAAAAAATAAAAAATATATATATATATATATA [CACACA_negctrl_site236],9.9 ± 0.73
14,TTATCATTTGCCATTGTGCACTTATATGCTCACATT,10.3 ± 0.23
15,TTTTTTTTTCAAGAGGTGCGTGTATTTTAACAAAAA,10.3 ± 0.43
16,AAAAAAAATTATGAAGTGCATTAGTGAATTTGATTG,9.92 ± 0.085
17,TTTTTCACACTTCAAAAGTGTCAACCTTCTATTCTC [TGCATGCA_negctrl_site489],10.15 ± 0.085
18,CAGTTTACTAATATTGCACACGAATATGAAAAAGAG [CACACA_site8941],10.6 ± 0.39
19,TACATATATTATTGCACACATATAAAATACCCCCAA [CACACA_site3895],10.9 ± 0.57
20,TTGTCTACAAAAATGTGCTTCTAATCATACGACTTG [CACACA_negctrl_site46],10.1 ± 0.16
21,GTAAAATTTACATAGAGTACTTATATTTTTTTCTGC [XGTACX_site3414],11.3 ± 0.79
22,CACAAATATACAAATACACACAAATATACAAATACA [CACACA_site2385],10.12 ± 0.049
23,CACAATGTAGTGTATAAATACAATAAAAGGTTGTAT [CACACA_negctrl_site700],10.2 ± 0.049

row,Sequence,gcPBM binding intensity (ln)
1,AATAAAATGCAATACATTTTGTTATATAATGTTGTT [CACACA_negctrl_site1525],9.65 ± 0.12
2,GTATAATTTATTGAACGTACACATATATATATGTAT [XGTACX_site1395],11.5 ± 1
3,TAAAGTGTAAAATTCACACACATATATATATATATA [CACACA_site4883],9.96 ± 0.32
4,ATATTGTAAGTAAACACACACACATATATCTGTATA [CACACA_site4541],10.1 ± 0.11
5,ATTTTTTTTTTCTTTTTTTTTTGTTTTTCTCCTTTT [CACACA_negctrl_site1182],9.69 ± 0.19
6,ATTTTTTTTATTATTACACACATATAATAAAAAAAT [CACACA_site1802],10.2 ± 0.35
7,TATTTGTAAAAATTGTGTACTTAGAAAATTCCAAAA [XGTACX_site6007],11.3 ± 0.81
8,TATATGTTTTTATGTACACACTTTTAACCTAAGAAA [CACACA_site4769],11.6 ± 0.97
9,TTCTTGTATATATTTTGTACATATATACCATTTTAG [XGTACX_site2409],10.7 ± 0.38
10,TATTTCTTATTACATACACACATATACATAGATGAC [CACACA_site5729],10.2 ± 0.24
11,TCTTGTCTACCTTGTATTTAATATTTACATATATAA [TGCATGCA_negctrl_site320],10.3 ± 0.2
12,ATAGGTAATAATAATACACACGGTGAAATATAGATG [CACACA_site9336],10.1 ± 0.16
13,AAATGTATAGGAATAATAATAAAAAAAAAAAAAAAT [CACACA_negctrl_site1793],9.515 ± 0.049
14,AAAAAAAATAAAATAATAAAAATTATGAATATATAT [CACACA_negctrl_site280],9.42 ± 0.16
15,TGGAGGTCAGTTCACAGTACCCAGTAACTCTACGGA [XGTACX_site2549],10.8 ± 0.51
16,ATCATTCCACTTTTCACACATATCTCTATTTCTATC [CACACA_site4723],10.01 ± 0.085
17,TTAAATGTAATATAATGTACGGATATTTACCATAAA [XGTACX_site1472],11.1 ± 0.77
18,AAGTATGTATCACAAAGTACTTAAGCATATATTTAA [XGTACX_site4121],10.8 ± 0.39
19,TTGTAATAAATAAAAGTGCATATATGGTTCCACTAT [GTGCAC_site9944],10.4 ± 0.32
20,GTATATATAATGTGCCGTACATTTATATATTCAATA [XGTACX_site1051],10.9 ± 0.54
21,GTATAATAGAAACACACACACACACCCAAAAAAAAA [CACACA_site2010],10.5 ± 0.36
22,TTATTTTTTTATTCATGTACACAAGAACATTTCATT [XGTACX_site5744],11.3 ± 0.67
23,TACAAATATGGACACACACACATATATATATATATA [CACACA_site4488],11.2 ± 0.79

row,Sequence,gcPBM binding intensity (ln)
1,TAAATATATTGGAGAGGTACACTTTTGGCATTGAAA [XGTACX_site8447],11.2 ± 0.71
2,ACATATTAAATATGAGTGCAATATATATATATATAA,10.2 ± 0.25
3,TATAATTATATAAATTGTACATAAAAAGTTTTTACT [XGTACX_site3621],11.1 ± 0.83
4,TATTATATCTTTTCAAGTACACATAACATACTTATT [XGTACX_site1081],11.3 ± 0.75
5,TTAGGTATATATAAACGTACTCACAATATCATATAA [XGTACX_site8743],11.1 ± 0.71
6,CAATATATTATATGGGTGCAAACCACATATAAATAA,10.2 ± 0.17
7,AAGTTTAAAATCTTTGCACACATATAAATAAATATA [CACACA_site2554],10.2 ± 0.29
8,ATAAATAAATAAAAAAGTACATTTCCACTTTTAACA [XGTACX_site81],11.2 ± 0.83
9,TGCACCCACCAACACACACACAACTAAAAAATAATG [CACACA_site2566],10.5 ± 0.58
10,TATATATACTTTTATGTACACACCTATAATATGGGT [CACACA_site1759],11.3 ± 0.72
11,AAATGTAATAATAAATGTACAAACATATATATGTAT [XGTACX_site8718],10.8 ± 0.46
12,GCTTAAGGTAAATATAAAATATAGTGTATACTTTAG [XGTACX_negctrl_site585],9.92 ± 0.14
13,TTACGCTGCTATATAGTGCACATAATATATGACCTG,10.2 ± 0.18
14,ATAAAAGATATGTATATGTATATGTATATATATATA [TGCATGCA_negctrl_site214],9.88 ± 0.4
15,TATAAATAAATAGATACACACATATTTATAAATACA [CACACA_site6219],9.96 ± 0.14
16,GTATGTATGTATGTATGTACTTATTAATCAGTAAAA [XGTACX_site3844],11.4 ± 0.86
17,ACTTAGGAAATAAAACGTACATTAAATATATACATA [XGTACX_site2990],11.5 ± 0.83
18,TGAATAATCAATAGTACACACATATAAATATAAATA [CACACA_site7345],11.1 ± 0.95
19,TTTTATTTATTATTATGTACACACTATATTAAAACA [XGTACX_site1265],11.6 ± 0.78
20,AATTTTGTATAGGTATCACACATGAAATATATTATT [CACACA_site5526],10.1 ± 0.13
21,TTTTTGTTAACAATGGGTACAAAAAAAAGGAAAATA [XGTACX_site7466],11.3 ± 0.86
